Over roughly 33,000 sequences, “E-score (-0.5 to 0.5)” has its median near -0.017; the highest 2% begin near 0.3. Some of the results follow.
These sequences were tested against T1, Sut1 (UniProt P53032) (assay: PBM E-score (8-mer binding enrichment) (E-score (-0.5 to 0.5)); higher = stronger / more preferred TF binding; most listed sequences are background and not binding sites). Conditions: protein concentration: 200 nM; construct: GST-full length.
T1 sequence: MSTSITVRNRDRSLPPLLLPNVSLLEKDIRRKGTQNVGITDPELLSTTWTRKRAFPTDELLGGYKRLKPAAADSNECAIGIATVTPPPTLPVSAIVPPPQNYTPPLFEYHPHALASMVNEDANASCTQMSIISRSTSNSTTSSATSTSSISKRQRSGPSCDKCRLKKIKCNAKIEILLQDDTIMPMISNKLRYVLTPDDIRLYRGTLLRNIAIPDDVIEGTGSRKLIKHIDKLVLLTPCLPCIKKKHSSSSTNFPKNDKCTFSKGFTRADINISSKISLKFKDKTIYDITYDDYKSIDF
How it was run: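 PURExpress in vitro transcription/translation supplied GST-tagged yeast transcription factors, either full-length or DNA-binding domain. Applied at about 100-200 nM to universal all-10-mer Agilent arrays double-stranded by primer extension, the bound protein was detected with fluorescent anti-GST. E-scores, modified Wilcoxon-Mann-Whitney statistics, were given by the Universal PBM Analysis Suite to ungapped eight-base words pooled with their reverse complements after masliner normalisation.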

| Sequence | PBM E-score |
| --- | --- |
| AGTACAAA | 0.152 |
| CGTTCAGA | -0.233 |
| AAACTGCC | 0.022 |
| ACATGTAG | 0.167 |
| GCCTGGAA | -0.066 |
| GCTACACC | -0.166 |
| ACACGCGG | -0.138 |
| ATATAGCA | 0.0316 |
| CAAACCAA | 0.145 |
| AAGTATCA | 0.0843 |
| ATCGTTGG | 0.0121 |
| GCGATAGA | -0.104 |
| ACCTGAGG | -0.313 |
| AAGATTAC | 0.191 |
| GATCGGAC | 0.367 |
| GTTACCCA | -0.19 |
| AGGTGGTC | -0.094 |
| ATATGCAC | 0.133 |
| GGATTGAC | -0.0159 |
| CCGCGAAA | 0.076 |
| CAAAGCTA | 0.031 |
| ACGCCAAA | 0.049 |
| ACTTAATA | 0.259 |
| AGCCGTGC | -0.275 |
| CACTATGC | 0.00999 |

| Sequence | PBM E-score |
| --- | --- |
| AGAATCGC | -0.0063 |
| CCACACGG | -0.0635 |
| ATGCGGAA | 0.0745 |
| GTCGTACA | 0.152 |
| GAGATTTA | 0.12 |
| CGGCACAG | 0.0997 |
| AACACTAC | 0.0196 |
| TTCACCAA | 0.0708 |
| GCATTTCC | 0.0947 |
| GTCCAGGA | -0.149 |
| AATCACGG | 0.223 |
| GATCTTCC | 0.00163 |
| AGTATCAC | 0.0249 |
| GACGATAA | -0.0234 |
| AGCGGCAT | -0.0727 |
| CTTAATGA | 0.0149 |
| AAATTTAT | 0.192 |
| CCGACTAG | -0.012 |
| ATCGATGC | -0.0895 |
| CCCGTCAC | -0.128 |
| ATGAGGAG | 0.0843 |
| AGAAGCCA | -0.0285 |
| GGCAATTA | 0.0911 |
| GAGTGACC | -0.104 |
| ACAGTAAA | 0.165 |

| Sequence | PBM E-score |
| --- | --- |
| AAGGGCAG | -0.169 |
| CGACTTAC | -0.0195 |
| GGATTGGA | -0.0756 |
| CATATAGC | 0.0133 |
| ATGGTTAC | 0.0832 |
| CGCCACCA | -0.255 |
| GCGTAACC | -0.019 |
| ACGAGTGC | -0.0845 |
| ACTAAACC | 0.0318 |
| CCCACCTA | -0.166 |
| TATAACGA | 0.187 |
| ATCGGCTA | -0.0625 |
| CAGAATCC | -0.0104 |
| CCGTTGAA | -0.00597 |
| TCTGGTAA | -0.0251 |
| CCACACCA | -0.0795 |
| GAGAGGCA | -0.0692 |
| AGGCACCG | -0.191 |
| AGAACTCT | 0.07 |
| GTACCGAC | -0.181 |
| CGTGGCAA | -0.166 |
| TCATTTAA | 0.0998 |
| CGATAGTC | 0.131 |
| GTCGCCAC | -0.202 |
| AAGTAAAC | 0.00246 |

| Sequence | PBM E-score |
| --- | --- |
| ATGGATAC | 0.0503 |
| AAACAAAG | 0.322 |
| AATCGCAA | 0.0677 |
| TAAGCTAA | 0.0524 |
| AGTACGGG | -0.112 |
| CACATCTG | -0.213 |
| CTTTCGGC | 0.0219 |
| CCTTCGTA | -0.101 |
| ATACCGGC | -0.0331 |
| CTGTTTAA | 0.197 |
| GACAAGTC | -0.0286 |
| ATGAATCA | 0.14 |
| ATAACGGG | 0.0139 |
| TTGATAAA | 0.328 |
| CCGTATCA | 0.118 |
| CTCTTCCA | 0.107 |
| ACATTATA | 0.16 |
| GCTAATAC | 0.0995 |
| CACGGGGA | -0.0337 |
| ATTACAAG | 0.21 |
| GTGGCCTA | -0.164 |
| CCCTTTCA | -0.253 |
| CAGCGAAA | -0.0168 |
| AGGACGCC | -0.259 |
| CTAATCAA | 0.126 |

| Sequence | PBM E-score |
| --- | --- |
| CGTCTAAC | -0.0531 |
| ATTAAGGC | 0.092 |
| CACTTTAC | 0.0727 |
| ATGGGGTG | -0.191 |
| GGTTACGA | -0.0578 |
| AGGTCGAA | -0.0783 |
| GGTCCCAC | -0.18 |
| GGGTGGCA | -0.207 |
| CCAGGCGG | -0.0099 |
| CGACCCGA | -0.176 |
| AAGAATGT | 0.0552 |
| AGACGCGC | -0.199 |
| CCATAAAC | -0.122 |
| GTAAGCGA | -0.0422 |
| AGGCGGTA | -0.202 |
| CGAGCTCA | 0.0432 |
| CAGGTAAG | -0.119 |
| AATAGCGT | 0.143 |
| GAATGACA | 0.0261 |
| TCCGAGAA | 0.407 |
| CTGCAGGA | 0.127 |
| CATACACG | -0.00231 |
| AGCGTTTA | 0.0143 |
| TGCCTAAA | -0.00993 |
| CAACGCTG | -0.0923 |

| Sequence | PBM E-score |
| --- | --- |
| CAGAGTAC | -0.128 |
| CACGCATA | -0.0972 |
| AGAATCTG | 0.0536 |
| GCTAAAAA | -0.0323 |
| ACGTCTTA | -0.206 |
| CCGCGGCC | -0.0143 |
| GACGGGCC | -0.167 |
| TAACTAAA | 0.0989 |
| CGCTGCCG | -0.223 |
| GCGCCGCA | -0.00935 |
| ATTAGGTA | 0.157 |
| ATCTCCCA | -0.155 |
| GCATAGGA | -0.0648 |
| ATCTTACC | 0.0115 |
| GCGCATAA | -0.166 |
| ACTAGGTG | -0.174 |
| AGCGCCCA | -0.407 |
| GTCCGCTA | 0.258 |
| GAAGTGAA | 0.00969 |
| ATCCGGTC | -0.00108 |
| GTCCATAA | -0.0692 |
| CCGGTCAG | -0.0559 |
| AATATCCT | 0.00199 |
| GCCTAGCA | -0.349 |
| ACTGCAAC | -0.189 |

| Sequence | PBM E-score |
| --- | --- |
| GACATGTA | 0.0695 |
| AAATGCCT | 0.00788 |
| CATCTAAA | 0.0229 |
| GGGGCAAA | -0.167 |
| GCCGAAGA | 0.0758 |
| ACCACAAC | 0.0947 |
| ATTTAGCG | 0.0651 |
| GACTGCTA | -0.152 |
| CCGCCCAG | 0.0308 |
| ACTGCATA | 0.0736 |
| CAATGGAC | -0.107 |
| CTCGGGCC | -0.089 |
| ACTTAACT | 0.153 |
| CTGGGCTC | -0.266 |
| GAGCGAAA | 0.195 |
| CGAGTCCA | -0.139 |
| CCCAGACC | -0.143 |
| AAGGGTGA | -0.134 |
| CCGTCTCC | 0.0135 |
| CAGGAGCG | -0.0908 |
| GTGAGCGA | -0.0389 |
| AGGCTGAA | -0.0932 |

Reference: the supplement of paper PMC3334620
